B1: CPEB3 Ribozyme (parent)
chain: UAACAGGGGGCCACAGCAGAAGCGUUCACGUCGCAGCCCCUGUCAGAUUCUGGUGAAUCUGCGAAUUCUGCUGUAUAUCUC

The source gives no read counts; variants with many changes may rest on few reads.

In the series the parent is B1. Description: self-cleavage, relative activity (ratio to wild type); higher = more cleavage; in vitro, sequencing. The procedure, abridged: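 CPEB3 self-cleaving ribozyme mutant libraries were made by rounds of error-prone PCR, barcoded, and transcribed in vitro with T7 RNA polymerase for 5 hours at 37°C. Cleavage occurred during transcription and a 15 min DNase I step before EDTA stop. RNAs were reverse transcribed with template switching and Illumina-sequenced, with DNA sequencing mapping barcodes to variants. Relative activity is the variant's cleaved/total read fraction divided by wild type's (minimum 5 reads), averaged across three batches.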
A28G U41C U43C U78C: the self-cleavage was found to be 0.58. Next, A28G G46U U54C U67C U72A: 0.08; A28U U31A C40U A56G U69C: 0.15.

Regarding A28U U60A U74C, the self-cleavage amounted to 0.86. Turning to A28G U31G A47U U78C, the self-cleavage was 0.14. Next, A28U C32U A35U U72C: 0.05; A28G U31C U58C U80C: 0.26; A28G C37U U43C: 0.11. Next, A28G C40G U49G: 0.11; A28U U31A U66C: 0.45; A28G U41C A64G: 0.46. As for A28G C40U U69A, the self-cleavage is 0.11. Consider A28U U43A U48C, for which the self-cleavage turned out to be 0.85.

As to A28U U41C U72C, the self-cleavage came to 0.92. With A28G U31A U43G U72C, the self-cleavage came out at 0.38. Next, A28U A57G U69A: 0.17; A28G U51A U80C: 0.74; A28G C62U U66C: 0.13.

As for A28G G33A A47G, the self-cleavage is 0.29. In the case of A28G U41A U72C, the self-cleavage was 0.26. On to A28G U51A U54C U67A, for which the self-cleavage came out at 0.11. Regarding A28U U41C A47G A57U U60C C71A A75U, the self-cleavage was 0.1.

On to A28U A35U U49C A56G A57G, for which the self-cleavage was 0.15. Next, A28G G33C A35U U43A U69A: 0.09; A28U U43C U48C U69C: 0.2; C29A A47G A57G U58C U76C U78C: 0.19. With A28U C32A C50U U72A, the self-cleavage is 0.08.

As for A28G U41C A56G, the self-cleavage stood at 0.29. Regarding A28G C50U U54G U69C, the self-cleavage came to 0.09. The value for A28U U60C C62U U69A was 0.2; that for A28G U41A A77G U80C was 0.17; that for A28G U58C U80C was 0.22.

In the case of A28G U31C C44A, the self-cleavage came to 0.2. As to A28U A47G G53C A56G, the self-cleavage was 0.45.

As to A28G U43C A47G U60C, the self-cleavage was 0.24. Next, A28G U31A U48C: 0.07; A28G U43A A47G: 0.68; A28G U58C U72C A77G: 0.08. As for A28G U67C U76C, the self-cleavage is 0.15. A28U U49C U58C: the self-cleavage was found to be 0.16. The value for A28G U48C A64G U69C was 0.17.

On to A28U U31A U60C, for which the self-cleavage was 0.08. Next, A28G U31G C50U: 0.47; A28G G53A U67C U74C: 0.14; A28U G30C C32U G70C U74A: 0.11. The value for A28U U66A G73A was 0.16; that for A28G G30A U41G U51A was 0.11; that for A28U U41C U78A was 0.74.

Take A28G U31C U58C U69C U78C: the self-cleavage was 0.14.

On to A28G U48C U66C, for which the self-cleavage was 0.06. Turning to A28U A56G A57G A65G, the self-cleavage stood at 0.14. For the variant A28G U51A U54C A56U U69C, the self-cleavage was 0.17. On to A28G U51C U76A U78C, for which the self-cleavage was found to be 0.4. Take A28G C37U U54C: the self-cleavage amounted to 0.3. For the variant C29A A45G G52U U54C, the self-cleavage was 0.23. On to A28U C37U A45U, for which the self-cleavage worked out at 0.18.

For the variant A28U C39G U41C C62U, the self-cleavage turned out to be 0.19. For the variant A28U U49A U51A, the self-cleavage came to 0.2. Turning to C29A G33A G36U A64G, the self-cleavage came out at 0.17. The value for A28G U41A U78C U80C was 0.14. As for A28G U51C U80A, the self-cleavage was 0.76. Consider A28G U31C A47G U49C U72A, for which the self-cleavage was determined as 0.14. Next, A28U G33U C37U: 0.14; A28U U41A U43G A65G: 0.09; A28G U78C U80G: 0.81. As for A28U U31A A35G A47G U76C, the self-cleavage stood at 0.92. For A28G U51C U54C A64U U72A, the self-cleavage is 0.14.

As for A28U C32U A47U U78A, the self-cleavage was determined as 0.04. As for A28G U41C U72C C81A, the self-cleavage is 0.74. Consider C29A A45U U51C U54C U58C C68A, for which the self-cleavage is 0.07.

With A28U U41C G55U, the self-cleavage worked out at 0.68. Consider A28U C32U U51G U76A, for which the self-cleavage was 0.17. Next, A28G U51C U54A A57G: 0.62; A28G G42U U48C U66C U69C C81U: 0.05.

In the case of A28G C39G U41A U48G, the self-cleavage came to 0.23. For A28U C34A U51A U60A, the self-cleavage came out at 0. Consider A28G G46A A47C, for which the self-cleavage turned out to be 0.09.

As for A28G C39U U54C, the self-cleavage stood at 0.21. Turning to A28U U48C A57G G63A, the self-cleavage turned out to be 0.77.

As to A28U A57G U80A, the self-cleavage was 0.67.

A28U U54A A64U: the self-cleavage amounted to 0.3.

Regarding A28G G53C U60C A64G, the self-cleavage is 0.13. Next, A28G C62U A65G G70A U80A: 0.08. Consider A28G U48C A77U C81U, for which the self-cleavage was 0.56.

The values above are taken from the RNAGym collection of RNA variant scans (doi:10.1093/nar/gkz1192).
